The text below walks through data of the supplement of paper PMC12217912.

The labels stand for the following.
B1: TEV protease; numbered along this chain (parent)
chain: MGESLFKGPRDYNPISSSICHLTNESDGHTTSLYGIGFGPFIITNKHLFRRNNGTLVVQSLHGVFKVKDTTTLQQHLVDGRDMIIIRMPKDFPPFPQKLKFREPQREERICLVTTNFQTKSMSSMVSDTSCTFPSGDGIFWKHWIQTKDGQCGSPLVSTRDGFIVGIHSASNFTNTNNYFTSVPKNFMELLTNQEAQQWVSGWRLNADSVLWGGHKVFMVKPEEPFQPVKEATQL

This is one part of the list. Sequences were assembled here from the parent chain. Inactive controls read about 0.05.

Variants of B1 are the subject of this experiment. Description: raw area under fraction-flipped curve 0-4 h after induction (AUC4h, not background-subtracted), DNA-recorder readout of cleavage of the substrate (dimensionless); higher = more cleavage of the substrate by the protease variant. The settings on record: temperature: 34 °C; time window: 0-4 h after rhamnose induction. The protocol: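 In vivo DNA recorder in E. coli TOP10(DE3) ΔrhaA at 34 °C. Each TEVp single-site mutant (parent TEVp 0) is paired with a single-site variant of the 7-mer TEVs (canonical ENLYFQ|S). The substrate sits between flexible linkers in a Bxb1-sfGFP-TEVs-SsrA fusion, so cleavage stabilises Bxb1 and speeds flipping of a recombination array, read by NGS. The value is the raw area under the fraction-flipped curve over 0-4 h after rhamnose induction (AUC4h), with ≥20 reads per time point. It is not background-subtracted; inactive controls average about 0.047.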
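Note: Bxb1 expression induced with 0.2% (w/v) L-rhamnose at OD600 near 0.5, cultures sampled hourly, flipped fraction per protease–substrate barcode pair counted by paired-end Illumina sequencing.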

As to MGESLFKGPRDYNPISSSICHLTNESDGHTTSLYGIGFGPFIITNKHLFRRNNGTLVVQSLHGVFKVKDTTTLQQHLVDGRDMIIIRMPKDFPPFPQKLKFREPQREERICLVTTNFQTKSMSSMISDTSCTFPSGDGIFWKHWIQTKDGQCGSPLVSTRDGFIVGIHSASNFTNTNNYFTSVPKNFMELLTNQEAQQWVSGWRLNADSVLWGGHKVFMVKPEEPFQPVKEATQL [V126I], the “area with substrate CNLYFQS” value amounted to 0.0774, the “area with substrate DNLYFQS” value stood at 0.0616, the “area with substrate HNLYFQS” value was found to be 0.0721 and the “area with substrate INLYFQS” value was 0.0627. For the same variant, the “area with substrate KNLYFQS” value stood at 0.075, the “area with substrate MNLYFQS” value stood at 0.0903, the “area with substrate PNLYFQS” value worked out at 0.0758 and the “area with substrate TNLYFQS” value came to 0.0617. Further, the “area with substrate WNLYFQS” value was 0.063 and the “area with substrate YNLYFQS” value came to 0.0618.

Regarding MGFSLFKGPRDYNPISSSICHLTNESDGHTTSLYGIGFGPFIITNKHLFRRNNGTLVVQSLHGVFKVKDTTTLQQHLVDGRDMIIIRMPKDFPPFPQKLKFREPQREERICLVTTNFQTKSMSSMVSDTSCTFPSGDGIFWKHWIQTKDGQCGSPLVSTRDGFIVGIHSASNFTNTNNYFTSVPKNFMELLTNQEAQQWVSGWRLNADSVLWGGHKVFMVKPEEPFQPVKEATQL [E3F], the “area with substrate CNLYFQS” value was determined as 0.0911, the “area with substrate DNLYFQS” value came out at 0.1, the “area with substrate HNLYFQS” value stood at 0.053 and the “area with substrate INLYFQS” value amounted to 0.0651. The “area with substrate LNLYFQS” value amounted to 0.0711, the “area with substrate PNLYFQS” value was 0.0752, the “area with substrate SNLYFQS” value amounted to 0.0739 and the “area with substrate TNLYFQS” value came to 0.0566. Moreover, the “area with substrate WNLYFQS” value came out at 0.0733.

As to MGESLFKGPRDYNPISSSICHLTNESDGHTTSLYGIGFGPFIITNKHLFRRNNGTLVVQSLHGVFKVKDTTTLQQHLVDGRDMIIIRMPKDFPPHPQKLKFREPQREERICLVTTNFQTKSMSSMVSDTSCTFPSGDGIFWKHWIQTKDGQCGSPLVSTRDGFIVGIHSASNFTNTNNYFTSVPKNFMELLTNQEAQQWVSGWRLNADSVLWGGHKVFMVKPEEPFQPVKEATQL [F95H], the “area with substrate CNLYFQS” value worked out at 0.0654, the “area with substrate DNLYFQS” value came to 0.0825, the “area with substrate FNLYFQS” value is 0.0783 and the “area with substrate GNLYFQS” value was determined as 0.0785. For the same variant, the “area with substrate HNLYFQS” value is 0.0648, the “area with substrate INLYFQS” value came out at 0.0482, the “area with substrate KNLYFQS” value amounted to 0.0726 and the “area with substrate LNLYFQS” value was found to be 0.052. Besides, the “area with substrate NNLYFQS” value was found to be 0.0552, the “area with substrate PNLYFQS” value was 0.0576, the “area with substrate SNLYFQS” value came out at 0.0671 and the “area with substrate TNLYFQS” value worked out at 0.0648. Besides, the “area with substrate WNLYFQS” value is 0.0587.

Regarding MGESLFKGPRDYNPISSSICHLTNESDGHTTSLYGIGFGPFIITNKHLFRRNNGTLVVQSLHGVFKVKDTTTLQQHLVDGRDMIIIRMPKDFPPFPQKLKFREPQREERICLVTTNFQTKSMSSMVSDTSCTFPSGDGIFWKHWIQTKDGQCGSPLVSTRDGFIVGIHSASNFTNTNNYFTSVPKNFMELLTNQEAQQPVSGWRLNADSVLWGGHKVFMVKPEEPFQPVKEATQL [W199P], the “area with substrate CNLYFQS” value amounted to 0.057, the “area with substrate DNLYFQS” value was determined as 0.0598, the “area with substrate FNLYFQS” value came to 0.0537 and the “area with substrate GNLYFQS” value was 0.0517. The “area with substrate HNLYFQS” value worked out at 0.0477, the “area with substrate INLYFQS” value was determined as 0.0524, the “area with substrate KNLYFQS” value is 0.0702 and the “area with substrate LNLYFQS” value stood at 0.0674. Also, the “area with substrate MNLYFQS” value came to 0.0607, the “area with substrate PNLYFQS” value came to 0.0638, the “area with substrate SNLYFQS” value amounted to 0.0463 and the “area with substrate TNLYFQS” value worked out at 0.0597. Also, the “area with substrate WNLYFQS” value is 0.0594 and the “area with substrate YNLYFQS” value stood at 0.0601.

Regarding MGESPFKGPRDYNPISSSICHLTNESDGHTTSLYGIGFGPFIITNKHLFRRNNGTLVVQSLHGVFKVKDTTTLQQHLVDGRDMIIIRMPKDFPPFPQKLKFREPQREERICLVTTNFQTKSMSSMVSDTSCTFPSGDGIFWKHWIQTKDGQCGSPLVSTRDGFIVGIHSASNFTNTNNYFTSVPKNFMELLTNQEAQQWVSGWRLNADSVLWGGHKVFMVKPEEPFQPVKEATQL [L5P], the “area with substrate CNLYFQS” value amounted to 0.0744, the “area with substrate DNLYFQS” value is 0.0604, the “area with substrate FNLYFQS” value was found to be 0.0534 and the “area with substrate HNLYFQS” value worked out at 0.0603. The “area with substrate KNLYFQS” value is 0.0593, the “area with substrate NNLYFQS” value came to 0.0588 and the “area with substrate SNLYFQS” value was 0.0561.

Regarding MGESLFKGPRDYNEISSSICHLTNESDGHTTSLYGIGFGPFIITNKHLFRRNNGTLVVQSLHGVFKVKDTTTLQQHLVDGRDMIIIRMPKDFPPFPQKLKFREPQREERICLVTTNFQTKSMSSMVSDTSCTFPSGDGIFWKHWIQTKDGQCGSPLVSTRDGFIVGIHSASNFTNTNNYFTSVPKNFMELLTNQEAQQWVSGWRLNADSVLWGGHKVFMVKPEEPFQPVKEATQL [P14E], the “area with substrate CNLYFQS” value was 0.0792, the “area with substrate DNLYFQS” value was determined as 0.0626, the “area with substrate FNLYFQS” value came to 0.0662 and the “area with substrate HNLYFQS” value stood at 0.0971. Besides, the “area with substrate KNLYFQS” value is 0.0815, the “area with substrate LNLYFQS” value worked out at 0.0699, the “area with substrate SNLYFQS” value stood at 0.0679 and the “area with substrate TNLYFQS” value was 0.0456. The “area with substrate WNLYFQS” value was 0.0498 and the “area with substrate YNLYFQS” value was determined as 0.044.

Regarding MGESLFKGPRDYNPISPSICHLTNESDGHTTSLYGIGFGPFIITNKHLFRRNNGTLVVQSLHGVFKVKDTTTLQQHLVDGRDMIIIRMPKDFPPFPQKLKFREPQREERICLVTTNFQTKSMSSMVSDTSCTFPSGDGIFWKHWIQTKDGQCGSPLVSTRDGFIVGIHSASNFTNTNNYFTSVPKNFMELLTNQEAQQWVSGWRLNADSVLWGGHKVFMVKPEEPFQPVKEATQL [S17P], the “area with substrate CNLYFQS” value turned out to be 0.0685, the “area with substrate DNLYFQS” value came out at 0.0649, the “area with substrate FNLYFQS” value amounted to 0.0571 and the “area with substrate GNLYFQS” value stood at 0.0657. Further, the “area with substrate HNLYFQS” value came to 0.0647, the “area with substrate INLYFQS” value is 0.123, the “area with substrate LNLYFQS” value stood at 0.065 and the “area with substrate MNLYFQS” value was determined as 0.0686. In addition, the “area with substrate NNLYFQS” value came out at 0.0713, the “area with substrate PNLYFQS” value stood at 0.0603, the “area with substrate SNLYFQS” value worked out at 0.0648 and the “area with substrate VNLYFQS” value amounted to 0.0607. Also, the “area with substrate WNLYFQS” value turned out to be 0.0563 and the “area with substrate YNLYFQS” value was 0.0303.

On to MGESLFKGPRDYNPISSSICHLTNESDGHTTSLYGIGFGPFIITNKHLFRRNNGTLVVQSLHGVFKVKDTTTLQQHLVDGRDMIIIRMPKDFPPFPQKLKFREPQREERICLVTTNFQTKSMSSMVSDTSCTFPSGDGIFWKHWIQTKDGQCGSPLVSTRDGFIVGIHSASNFTNTNNYFTSVPKNFMELLTNQEAQQWVSGWRLNADSVMWGGHKVFMVKPEEPFQPVKEATQL [L211M], for which the “area with substrate CNLYFQS” value turned out to be 0.064, the “area with substrate DNLYFQS” value was 0.0875, the “area with substrate FNLYFQS” value was 0.0525 and the “area with substrate GNLYFQS” value came to 0.0789. Besides, the “area with substrate HNLYFQS” value worked out at 0.0602, the “area with substrate INLYFQS” value amounted to 0.0922, the “area with substrate KNLYFQS” value came out at 0.0655 and the “area with substrate NNLYFQS” value was 0.0893. Moreover, the “area with substrate PNLYFQS” value worked out at 0.11, the “area with substrate RNLYFQS” value was 0.0604, the “area with substrate SNLYFQS” value is 0.0683 and the “area with substrate TNLYFQS” value was found to be 0.0684. The “area with substrate VNLYFQS” value is 0.0674 and the “area with substrate WNLYFQS” value stood at 0.0642.

MGESLFKGPRDYNPISSSICHLTNESDGHTTSLYGIGFGPFIITNKHLFRRNNCTLVVQSLHGVFKVKDTTTLQQHLVDGRDMIIIRMPKDFPPFPQKLKFREPQREERICLVTTNFQTKSMSSMVSDTSCTFPSGDGIFWKHWIQTKDGQCGSPLVSTRDGFIVGIHSASNFTNTNNYFTSVPKNFMELLTNQEAQQWVSGWRLNADSVLWGGHKVFMVKPEEPFQPVKEATQL [G54C]: the “area with substrate CNLYFQS” value is 0.05, the “area with substrate DNLYFQS” value turned out to be 0.0607, the “area with substrate GNLYFQS” value stood at 0.0392 and the “area with substrate HNLYFQS” value came to 0.0796. In addition, the “area with substrate KNLYFQS” value worked out at 0.0621, the “area with substrate NNLYFQS” value is 0.0705, the “area with substrate PNLYFQS” value was determined as 0.0583 and the “area with substrate QNLYFQS” value was 0.0312. For the same variant, the “area with substrate SNLYFQS” value is 0.0828, the “area with substrate TNLYFQS” value is 0.0659, the “area with substrate VNLYFQS” value amounted to 0.0696 and the “area with substrate WNLYFQS” value amounted to 0.0605. The “area with substrate YNLYFQS” value is 0.055.

For MGESLFKGPRDYNPISSSICHLTNESDGHTTSLYGIGFGPFIITNKHLFRRNNGTLVVQSLHGVFKVKDTTTLQQHLVDGRDMIIIRMPKDFPPFPQKLKFREPQREERICLVTTNFQTKSMSSMVSDTSCTFPSGDGIFWKHWIQTKDGQCGSPLVSTRDGFIVGIHSASNFTNTCNYFTSVPKNFMELLTNQEAQQWVSGWRLNADSVLWGGHKVFMVKPEEPFQPVKEATQL [N177C], the “area with substrate CNLYFQS” value was 0.0926, the “area with substrate DNLYFQS” value is 0.125, the “area with substrate FNLYFQS” value came out at 0.0699 and the “area with substrate HNLYFQS” value was found to be 0.113. Besides, the “area with substrate KNLYFQS” value came out at 0.0837, the “area with substrate LNLYFQS” value came to 0.0552, the “area with substrate MNLYFQS” value was determined as 0.0989 and the “area with substrate PNLYFQS” value turned out to be 0.0904. The “area with substrate QNLYFQS” value worked out at 0.114, the “area with substrate TNLYFQS” value came to 0.0856, the “area with substrate VNLYFQS” value was 0.0888 and the “area with substrate WNLYFQS” value stood at 0.0689. Further, the “area with substrate YNLYFQS” value was 0.0712.
